Source: the supplement of paper PMC10126150
Values marked as one replicate rest on one cluster of the flow cell; about a third of the high ones do not repeat.

What follows are sequences tested on ATP (assay: switch fluorescence ratio, 500 uM ATP over buffer (Cy3 cluster intensity, sum of 5 cycles each) (fold (ratio)); higher = stronger signal-on switching upon ATP binding; sequences stand for … in TCGTCGGCAGCGTCAGATGTGTATAAGAGACAGTTTTTTTTTTTTTTTTTTTTTTTTT…TC). Settings: aptamer strand: ATP DNA aptamer (quencher-CACCTGGGGGAGTATTGCGGAGGAAGG + anchor), 100 nM annealed; ATP concentration: 500 uM; one replicate.
Procedure, shortened: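 Imaging in selection buffer was followed by imaging after 15 min with 500 uM ATP at 22 °C, for Cy3-labelled switching-strand clusters annealed to 100 nM quencher-labelled ATP aptamer on a modified Illumina MiSeq flow-cell. Five of these buffer/ATP cycles ran, separated by NaOH stripping and re-annealing. The fluorescence ratio per cluster is summed target-cycle over summed buffer-cycle Cy3 intensity, averaged per switch-domain sequence; clusters outside 100-1000 RFU were removed.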
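Note: ATP exposure 15 min at 22 °C before imaging.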

Sequence	switch fluorescence ratio
CGGCTGTTGG	0.984
CGGCTTGGAA	1.03
CGGGAAATAA	1.06
CGGGAAGCCT	1.05
CGGGACAATC	1.46
CGGGACAGGA	1
CGGGAGACAC	1.03
CGGGAGGGCG	0.999
CGGGATAAC	1.2
CGGGATAGT	1.03
CGGGATCCT	1
CGGGATGAG	1.01
CGGGATGAGC	1.08
CGGGATTTGC	0.991
CGGGCAAGCT	1.03
CGGGCCCTAC	0.997
CGGGCGAACC	0.991
CGGGCGAGGT	1.04
CGGGCGCCTT	0.999
CGGGCGCTTT	1.03
CGGGCTTACG	1.03
CGGGCTTTGC	0.988
CGGGGACACG	1.03
CGGGGAGCTC	1
CGGGGATGAG	0.963
CGGGGCCATA	0.996

Sequence	switch fluorescence ratio
CGGGGCCCCG	0.967
CGGGGGCTTA	1.04
CGGGGTGATA	0.988
CGGGGTGCA	1.01
CGGGGTGGAT	0.948
CGGGTAACGC	0.991
CGGGTATAAT	0.953
CGGGTGGCGT	0.957
CGGGTGGTCT	0.957
CGGGTGTCGT	1.02
CGGGTTAATT	1
CGGGTTAGCG	0.974
CGGGTTATGA	1.01
CGGGTTCCAT	1.05
CGGTAAAAGC	1.02
CGGTAAACTT	1.04
CGGTACCTAA	1.01
CGGTAGCGGT	1.04
CGGTAGGCCT	1.01
CGGTATAAAT	1.04
CGGTATACCT	1.06
CGGTATATAG	1.04
CGGTATTGTT	1.02
CGGTCACGGT	1.01
CGGTCATACG	0.999
CGGTCCTGTG	0.975

Sequence	switch fluorescence ratio
CGGTCGCCAT	0.998
CGGTCGGTCT	0.99
CGGTCTGACT	0.953
CGGTCTGGGT	1.02
CGGTCTTAAA	0.968
CGGTCTTGAC	0.975
CGGTGAAAGT	0.984
CGGTGAGCTG	1
CGGTGCAGGA	1.09
CGGTGCTGTA	1.06
CGGTGGGTTT	0.991
CGGTGGTGCA	1.01
CGGTGTTCCT	0.988
CGGTGTTTAC	1
CGGTGTTTCG	0.97
CGGTTACTCG	1.03
CGGTTCGTCC	0.996
CGGTTGATG	0.961
CGGTTGGAG	0.96
CGGTTGTAAG	1.01
CGGTTTGACC	1
CGGTTTGCGA	0.937
CGGTTTGTAG	1
CGTAAATGTT	1.02
CGTAACCGGG	0.986
CGTAACGTAT	1.03

Sequence	switch fluorescence ratio
CGTAAGTGAG	1.01
CGTAATATCA	1.13
CGTAATATTC	3.08
CGTAATTTAT	0.972
CGTAATTTTG	1.01
CGTACATTAA	1.01
CGTACCAGAG	1.02
CGTACCCCGA	1.02
CGTACCCTGC	0.938
CGTACGAAGA	1.01
CGTACGGCTG	1.09
CGTACTGGTA	0.994
CGTAGAAGAT	0.961
CGTAGACATG	1
CGTAGAGGTT	1
CGTAGATT	0.964
CGTAGGCGAT	1.02
CGTAGGTCAA	1.07
CGTAGGTTAC	1.72
CGTAGTACTT	1.13
CGTAGTGCTT	1.01
CGTAGTTAGG	1
CGTATCCCAA	1.07
CGTATGCGAG	0.947
CGTATGCGCT	0.959
CGTATGTCAT	0.956

Sequence	switch fluorescence ratio
CGTATTACAG	0.997
CGTATTATCC	1.08
CGTATTGAGT	0.982
CGTCAAGCGC	1.1
CGTCACGTTC	1.01
CGTCAGAAAT	1.02
CGTCAGAAC	1.09
CGTCAGAAGT	1.01
CGTCAGAGTT	0.982
CGTCAGCAGG	1.46
CGTCAGGGGT	1.12
CGTCAGGTTC	0.987
CGTCATGACT	0.987
CGTCATGTAA	0.996
CGTCCAACTG	1.04
CGTCCAGCTG	1.03
CGTCCAGGTT	1.02
CGTCCATGCA	1.32
CGTCCCGTAC	2.87
CGTCCGGATA	3.34
CGTCCGGTCA	1.18
CGTCCGTCCA	1.41
CGTCCGTTTC	1.5
CGTCGAAATC	1.29
CGTCGAAGTG	0.994
CGTCGCTTCT	1.04

Sequence	switch fluorescence ratio
CGTCGGTTGT	0.988
CGTCGTAGCA	1
CGTCGTCAGG	0.979
CGTCGTTTTT	0.963
CGTCTCAGTT	1.05
CGTCTCTCTA	1.04
CGTCTGAG	1.01
CGTCTGGTTT	0.948
CGTCTTTGCG	0.938
CGTGAAAACA	1.13
CGTGAACACC	0.957
CGTGAGCGTA	0.966
CGTGATAAAA	0.999
CGTGATGCGT	0.99
CGTGATTGCG	0.97
CGTGCAGCGT	0.989
CGTGCATGTT	1.02
CGTGCCTGTA	0.93
CGTGCTGTTC	0.952
CGTGGAAAAG	0.997
CGTGGAGCGC	0.975
CGTGGCGTGA	1.03
CGTGGCGTGC	0.951
